# Results reported in the supplement of paper PMC10369915.
# The list shows a part of the results. Rule as the data show it: active = 3.2 or more and inactive = the rest. The signal is at background level for most entries.
# Molecular target: SHP2 C-SH2 domain E139D
# Assay: enrichment score (SH2-bound / input frequency) (ratio); bacterial display of known human phosphotyrosine sites (pTyr-Var adds point mutants) read by sequencing; higher = stronger binding; tyrosines were phosphorylated by kinases first
# Conditions: peptide library: pTyr-Var
# 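Also: displayed peptides selected on beads carrying the immobilized SH2 domain, with library peptides lacking any tyrosine serving as negative controls.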
row,Binder,enrichment score
1,KQLYAYKMLMA [TMC2_Y209],inactive: 1.26
2,KRLYAYKMLMA [TMC2_Y209_Q205R],active: 3.91
3,KRLFAYKMLMA [TMC2_Y209_Q205R_YF],active: 3.94
4,VSSPKYGSDDE [TMCC2_Y473],inactive: 0.553
5,VSSPKYGSNDE [TMCC2_Y473_D476N],inactive: 0.486
6,QNTGHYSSENT [TMEFF2_Y361_D364E],inactive: 0.669
7,VTPSEYLEIVR [TMEM130_Y412_E407V],inactive: 1.02
8,KGYCGYSYDDI [TMEM230_Y110_R108C],inactive: 0.867
9,KGFRGYSFDDI [TMEM230_Y110_YF],inactive: 0.733
10,FCGFSYDDIPD [TMEM230_Y112_R108C_YF],inactive: 1.26
11,DASENYFVMDS [TMEM240_Y77_T80M],inactive: 0.898
12,ADNQRYAFMPL [TMEM87B_Y460_N456D],inactive: 0.72
13,YSNVLYRPRGP [TMIGD2_Y197_A202P],inactive: 0.242
14,FSNVLYRPRGP [TMIGD2_Y197_A202P_YF],inactive: 0.347
15,FSNVLYRPRGA [TMIGD2_Y197_YF],inactive: 0.222
16,DQLVKYGVNPG [TMPO_Y127],inactive: 0.818
17,LYSDHYSPSGR [TMPRSS12_Y23],inactive: 0.748
18,LFSDHYSPSGR [TMPRSS12_Y23_YF],inactive: 1

# Molecular target: SHP2 C-SH2 domain wild-type
# Assay: as above
# Conditions: peptide library: pTyr-Var
row,Binder,enrichment score
1,KQLYAYKMLMA [TMC2_Y209],inactive: 1.41
2,KRLYAYKMLMA [TMC2_Y209_Q205R],active: 3.23
3,KRLFAYKMLMA [TMC2_Y209_Q205R_YF],active: 3.28
4,VSSPKYGSDDE [TMCC2_Y473],inactive: 0.622
5,VSSPKYGSNDE [TMCC2_Y473_D476N],inactive: 0.522
6,QNTGHYSSENT [TMEFF2_Y361_D364E],inactive: 0.617
7,VTPSEYLEIVR [TMEM130_Y412_E407V],inactive: 0.955
8,KGYCGYSYDDI [TMEM230_Y110_R108C],inactive: 0.982
9,KGFRGYSFDDI [TMEM230_Y110_YF],inactive: 0.582
10,FCGFSYDDIPD [TMEM230_Y112_R108C_YF],inactive: 1.23
11,DASENYFVMDS [TMEM240_Y77_T80M],inactive: 0.666
12,ADNQRYAFMPL [TMEM87B_Y460_N456D],inactive: 0.525
13,YSNVLYRPRGP [TMIGD2_Y197_A202P],inactive: 0.171
14,FSNVLYRPRGP [TMIGD2_Y197_A202P_YF],inactive: 0.236
15,FSNVLYRPRGA [TMIGD2_Y197_YF],inactive: 0.295
16,DQLVKYGVNPG [TMPO_Y127],inactive: 0.774
17,LYSDHYSPSGR [TMPRSS12_Y23],inactive: 0.677
18,LFSDHYSPSGR [TMPRSS12_Y23_YF],inactive: 0.818

# Molecular target: SHP2 N-SH2 domain L43F
# Assay: as above
# Conditions: peptide library: pTyr-Var
row,Binder,enrichment score
1,KQLYAYKMLMA [TMC2_Y209],inactive: 1.34
2,KRLYAYKMLMA [TMC2_Y209_Q205R],inactive: 3.05
3,KRLFAYKMLMA [TMC2_Y209_Q205R_YF],active: 3.26
4,VSSPKYGSDDE [TMCC2_Y473],inactive: 0.516
5,VSSPKYGSNDE [TMCC2_Y473_D476N],inactive: 0.622
6,QNTGHYSSENT [TMEFF2_Y361_D364E],inactive: 0.382
7,VTPSEYLEIVR [TMEM130_Y412_E407V],inactive: 0.589
8,KGYCGYSYDDI [TMEM230_Y110_R108C],inactive: 0.972
9,KGFRGYSFDDI [TMEM230_Y110_YF],inactive: 0.583
10,FCGFSYDDIPD [TMEM230_Y112_R108C_YF],inactive: 1.2
11,DASENYFVMDS [TMEM240_Y77_T80M],inactive: 0.517
12,ADNQRYAFMPL [TMEM87B_Y460_N456D],inactive: 0.67
13,YSNVLYRPRGP [TMIGD2_Y197_A202P],inactive: 0.249
14,FSNVLYRPRGP [TMIGD2_Y197_A202P_YF],inactive: 0.289
15,FSNVLYRPRGA [TMIGD2_Y197_YF],inactive: 0.241
16,DQLVKYGVNPG [TMPO_Y127],inactive: 0.737
17,LYSDHYSPSGR [TMPRSS12_Y23],inactive: 0.556
18,LFSDHYSPSGR [TMPRSS12_Y23_YF],inactive: 0.809

# Molecular target: SHP2 N-SH2 domain T42A
# Assay: as above
# Conditions: peptide library: pTyr-Var
row,Binder,enrichment score
1,KQLYAYKMLMA [TMC2_Y209],inactive: 1.38
2,KRLYAYKMLMA [TMC2_Y209_Q205R],inactive: 3.06
3,KRLFAYKMLMA [TMC2_Y209_Q205R_YF],inactive: 3.08
4,VSSPKYGSDDE [TMCC2_Y473],inactive: 0.538
5,VSSPKYGSNDE [TMCC2_Y473_D476N],inactive: 0.489
6,QNTGHYSSENT [TMEFF2_Y361_D364E],inactive: 0.398
7,VTPSEYLEIVR [TMEM130_Y412_E407V],inactive: 0.665
8,KGYCGYSYDDI [TMEM230_Y110_R108C],inactive: 0.957
9,KGFRGYSFDDI [TMEM230_Y110_YF],inactive: 0.594
10,FCGFSYDDIPD [TMEM230_Y112_R108C_YF],inactive: 1.15
11,DASENYFVMDS [TMEM240_Y77_T80M],inactive: 0.586
12,ADNQRYAFMPL [TMEM87B_Y460_N456D],inactive: 0.576
13,YSNVLYRPRGP [TMIGD2_Y197_A202P],inactive: 0.186
14,FSNVLYRPRGP [TMIGD2_Y197_A202P_YF],inactive: 0.311
15,FSNVLYRPRGA [TMIGD2_Y197_YF],inactive: 0.286
16,DQLVKYGVNPG [TMPO_Y127],inactive: 0.784
17,LYSDHYSPSGR [TMPRSS12_Y23],inactive: 0.631
18,LFSDHYSPSGR [TMPRSS12_Y23_YF],inactive: 0.833

# Molecular target: SHP2 N-SH2 domain T52S
# Assay: as above
# Conditions: peptide library: pTyr-Var
row,Binder,enrichment score
1,KQLYAYKMLMA [TMC2_Y209],inactive: 1.27
2,KRLYAYKMLMA [TMC2_Y209_Q205R],inactive: 3
3,KRLFAYKMLMA [TMC2_Y209_Q205R_YF],active: 3.27
4,VSSPKYGSDDE [TMCC2_Y473],inactive: 0.55
5,VSSPKYGSNDE [TMCC2_Y473_D476N],inactive: 0.522
6,QNTGHYSSENT [TMEFF2_Y361_D364E],inactive: 0.37
7,VTPSEYLEIVR [TMEM130_Y412_E407V],inactive: 0.767
8,KGYCGYSYDDI [TMEM230_Y110_R108C],inactive: 0.736
9,KGFRGYSFDDI [TMEM230_Y110_YF],inactive: 0.618
10,FCGFSYDDIPD [TMEM230_Y112_R108C_YF],inactive: 1.16
11,DASENYFVMDS [TMEM240_Y77_T80M],inactive: 0.794
12,ADNQRYAFMPL [TMEM87B_Y460_N456D],inactive: 0.653
13,YSNVLYRPRGP [TMIGD2_Y197_A202P],inactive: 0.256
14,FSNVLYRPRGP [TMIGD2_Y197_A202P_YF],inactive: 0.214
15,FSNVLYRPRGA [TMIGD2_Y197_YF],inactive: 0.213
16,DQLVKYGVNPG [TMPO_Y127],inactive: 0.832
17,LYSDHYSPSGR [TMPRSS12_Y23],inactive: 0.761
18,LFSDHYSPSGR [TMPRSS12_Y23_YF],inactive: 0.692

# Molecular target: SHP2 N-SH2 domain wild-type
# Assay: as above
# Conditions: peptide library: pTyr-Var
row,Binder,enrichment score
1,KQLYAYKMLMA [TMC2_Y209],inactive: 1.38
2,KRLYAYKMLMA [TMC2_Y209_Q205R],inactive: 3.09
3,KRLFAYKMLMA [TMC2_Y209_Q205R_YF],active: 3.31
4,VSSPKYGSDDE [TMCC2_Y473],inactive: 0.531
5,VSSPKYGSNDE [TMCC2_Y473_D476N],inactive: 0.485
6,QNTGHYSSENT [TMEFF2_Y361_D364E],inactive: 0.455
7,VTPSEYLEIVR [TMEM130_Y412_E407V],inactive: 0.902
8,KGYCGYSYDDI [TMEM230_Y110_R108C],inactive: 0.884
9,KGFRGYSFDDI [TMEM230_Y110_YF],inactive: 0.808
10,FCGFSYDDIPD [TMEM230_Y112_R108C_YF],inactive: 1.3
11,DASENYFVMDS [TMEM240_Y77_T80M],inactive: 0.563
12,ADNQRYAFMPL [TMEM87B_Y460_N456D],inactive: 0.698
13,YSNVLYRPRGP [TMIGD2_Y197_A202P],inactive: 0.346
14,FSNVLYRPRGP [TMIGD2_Y197_A202P_YF],inactive: 0.277
15,FSNVLYRPRGA [TMIGD2_Y197_YF],inactive: 0.191
16,DQLVKYGVNPG [TMPO_Y127],inactive: 1.01
17,LYSDHYSPSGR [TMPRSS12_Y23],inactive: 0.55
18,LFSDHYSPSGR [TMPRSS12_Y23_YF],inactive: 1.02
